# Where “and” joins values, the source holds several entries; their conditions need not be identical. Equal values may be shown once. The shares of active, inactive and inconclusive entries below differ from those in the screen. For part of these data: Potencies of inconclusive entries are doubtful fits and often do not repeat. A structure can be active in one record and inactive in another. Calls of active or inactive are those of the source. Unless noted, calls follow the shape of the dose curve; as a rule, active = well fitted curve in the direction sought with a large enough effect in the repeat runs; inconclusive = weak or mixed curves; inactive = no such curve, though single readings can be large; an effect the other way counts as inactive or inconclusive.
# Tests used:
# [1] = target: Thyrotropin receptor (Homo sapiens) (UniProt P16473); assay: qHTS assay to identify small molecule agonists of the thyroid stimulating hormone receptor (TSHR) signaling pathway (AID 1224843; calls by dose curve; also: nearly all actives have a fitted effect of over 45% in size; also: potency is read from the fitted curve at half-maximal effect; as to activation: % is scaled to controls: 0 for no effect and ±100 for the full control effect); conditions: TSHR-HEK293 cells, cAMP HTRF, agonist mode, 30 min; activation: at 92.4 µM (top of the series) unless noted
# Chain of UniProt P16473 (P16473 whole entry, looked up): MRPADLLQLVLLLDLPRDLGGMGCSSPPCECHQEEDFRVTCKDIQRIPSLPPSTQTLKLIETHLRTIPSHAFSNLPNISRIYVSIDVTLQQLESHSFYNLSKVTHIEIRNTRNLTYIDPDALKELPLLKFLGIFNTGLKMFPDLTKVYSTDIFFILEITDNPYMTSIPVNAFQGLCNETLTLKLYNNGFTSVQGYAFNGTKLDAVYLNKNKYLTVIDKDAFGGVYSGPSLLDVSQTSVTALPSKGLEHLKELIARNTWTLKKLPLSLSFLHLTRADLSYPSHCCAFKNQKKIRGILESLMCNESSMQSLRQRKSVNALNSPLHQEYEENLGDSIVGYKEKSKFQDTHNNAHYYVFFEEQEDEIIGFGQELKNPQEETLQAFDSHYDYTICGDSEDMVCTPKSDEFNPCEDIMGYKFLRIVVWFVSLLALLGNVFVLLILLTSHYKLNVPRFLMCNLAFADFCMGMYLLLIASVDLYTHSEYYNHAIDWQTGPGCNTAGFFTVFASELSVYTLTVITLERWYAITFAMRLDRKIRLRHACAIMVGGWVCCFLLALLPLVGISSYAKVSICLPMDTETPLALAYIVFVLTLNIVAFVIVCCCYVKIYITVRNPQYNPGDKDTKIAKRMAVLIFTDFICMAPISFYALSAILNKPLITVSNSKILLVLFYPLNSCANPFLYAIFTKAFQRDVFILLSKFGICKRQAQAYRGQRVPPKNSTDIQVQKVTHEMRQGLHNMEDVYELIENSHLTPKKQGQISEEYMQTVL
# Method in brief: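 Cell line HEK293 with TSHR; density 800/well. Exposure 30 min RT. Readout HTRF cAMP (cAMP-d2/anti-cAMP-cryptate), 1 h RT before reading.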
# [2] = qHTS assay to identify small molecule agonists of the hypoxia (HIF-1) signaling pathway - cell viability counter screen (AID 1224844; calls by dose curve; also: potency is read from the fitted curve at half-maximal effect; nearly all actives have a fitted effect of over 50% in size)
# Method in brief: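 Tox21 10K compounds were added to HRE-bla ME-180 cells (0.5% dialyzed FBS) and incubated 17 hrs at 37C; ATP-based CellTiter-Glo luminescence then reported cell viability in the same wells.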
# [3] = qHTS RealTime-Glo MT Cell Viability Assay in HEK293 cells - 32 hour (AID 1224868); also: potency is read from the fitted curve at half-maximal effect; nearly all actives have a fitted effect of over 50% in size
# Method in brief: (§1)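 Viability tracked continuously by luminescence as live cells reduce a prosubstrate for NanoLuc; HEK293 cells preincubated 5 h, compound-treated at 37 C, and read at 0, 8, 16, 24, 32 and 40 h.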
# [4] = qHTS RealTime-Glo MT Cell Viability Assay in HEK293 cells - 40 hour (AID 1224874); conditions: RealTime-Glo luminescence; max response: hits give low values; also: potency is read from the fitted curve at half-maximal effect; nearly all actives have a fitted effect of over 50% in size
# Method in brief: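 Nonlytic bioluminescent viability monitoring. HEK293 at 600 cells/well with reagent; 5 h settle; compound transfer by pintool; plates held at 37 C and read at set time points.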
# [5] = qHTS assay to identify small molecule agonists of H2AX (AID 1224845; active = well fitted activation curve with a large enough effect in the signal ratio in the repeat runs, not every such curve was filed as active; inconclusive = weak or mixed curves; the % refers to the signal ratio; also: % is scaled to controls: 0 for no effect and ±100 for the full control effect); conditions: CHO-K1 phospho-H2AX Ser139 HTRF, 3 h; activation (H2AX phosphorylation): at 154 µM (top of the series)
# Method in brief: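 Wild-type CHO-K1 cells plated overnight, then exposed 3 hr at 37C to compounds at 15 concentrations (0.76% DMSO). Lysed, then HTRF anti-pH2AX(S139)-cryptate/anti-H2AX-d2 detection after 24 hr at room temperature; emissions 665 and 620 nm.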
# [6] = qHTS assay to identify small molecule agonists of the hypoxia (HIF-1) signaling pathway (AID 1224846; active = well fitted activation curve with a large enough effect in the signal ratio in the repeat runs, not every such curve was filed as active; inconclusive = weak or mixed curves; the % refers to the signal ratio; also: potency is read from the fitted curve at half-maximal effect); conditions: HRE-bla ME-180 cells, beta-lactamase ratio, 17 h; activation: at 76.8 µM (top of the series) unless noted
# Method in brief: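 Steps: seed ME-180 HRE-bla cells (2,000/well, 0.5% dialyzed FBS); incubate 5 hrs at 37C; pin-transfer compounds or DMSO; incubate 17 hrs; add LiveBLAzer B/G substrate CCF4-AM; measure reporter activation by FRET.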
# [7] = qHTS RealTime-Glo MT Cell Viability Assay in HepG2 cells - 24 hour (AID 1224867); also: potency is read from the fitted curve at half-maximal effect; nearly all actives have a fitted effect of over 50% in size
# Method in brief: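 Viability was tracked continuously by NanoLuc luminescence from prosubstrate reduced by living HepG2 cells, at successive time points over 40 h of compound exposure. Cells with reagent were preincubated 5 h at 37 °C before compound addition.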
# [8] = qHTS RealTime-Glo MT Cell Viability Assay in HEK293 cells - 16 hour (AID 1224872)
# Method in brief: as §1
# [9] = qHTS RealTime-Glo MT Cell Viability Assay in HepG2 cells - 8 hour (AID 1224873); also: potency is read from the fitted curve at half-maximal effect; nearly all actives have a fitted effect of over 55% in size
# Method in brief: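 HepG2 cells mixed with RealTime-Glo MT reagents (NanoLuc plus cell-permeant prosubstrate) were seeded at 600 cells/well, incubated 5 h at 37 C/5% CO2, then pinned with compounds in DMSO; nonlytic luminescence tracked viability during 40 h treatment.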
# [10] = qHTS assay to identify small molecule agonists of H2AX - cell viability counter screen (AID 1224847; calls by dose curve; also: potency is read from the fitted curve at half-maximal effect; nearly all actives have a fitted effect of over 30% in size)
# Method in brief: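 Quantitative HTS viability measurement: CHO-K1 wild-type cells in serum (10% FBS) medium, short 3 hr drug exposure at 37C with 0.76% DMSO, CellTiter-Glo luminescent detection.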
# [11] = A CellTox Green Cytotoxicity Assay to monitor cytotoxicity in HEK293 cells - 40 hour (AID 1224871); also: potency is read from the fitted curve at half-maximal effect; nearly all actives have a fitted effect of over 45% in size
# Method in brief: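 Cytotoxicity was tracked continuously in HEK293 cells by a DNA-binding dye excluded from viable cells. Compounds were transferred in DMSO 5 h after seeding; fluorescence was recorded at intervals up to 40 h.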
# Tags tell the direction and shape of the fitted curve or compound fluorescence and quenching.
smiles,measurement,setting,value
CCCCOCCOP(=O)(OCCOCCCC)OCCOCCCC,Potency,[1],"inconclusive: 19.4 µM [inhibitor, partial curve] and inconclusive: 30.6 µM [inhibitor, partial curve]"
same,Potency,[2],"inconclusive: 61.7 µM [cytotoxic, single point]"
same,Potency,[3],"inconclusive: 49 µM [cytotoxic, partial curve]"
same,Potency,[4],"inconclusive: 43.7 µM [cytotoxic, partial curve]"
CCN(CC)C(=S)S,activation,[1],inconclusive: -32.8%
same,Potency,[5],inactive
same,Potency,[6],inconclusive: 22.1 µM [full curve] and inconclusive: 10.9 µM [full curve] and inconclusive: 11 µM [full curve]
same,Potency,[7],active: 21.9 µM
same,Potency,[8],"inconclusive: 4.87 µM [cytotoxic, full curve] and inconclusive: 15.5 µM [cytotoxic, full curve]"
same,Potency,[9],"inconclusive: 21.9 µM [falling, full curve]"
CCOC(=O)c1cn2nc(OP(=S)(OCC)OCC)cc2nc1C,Potency,[1],"inconclusive: 21.7 µM [inhibitor, partial curve]"
same,Potency,[6],"inconclusive: 17.4 µM [falling, partial curve, poor fit]"
same,Potency,[10],"inconclusive: 56.6 µM [cytotoxic, partial curve]"
same,Potency,[3],active: 13.8 µM
same,Potency,[8],active: 17.4 µM
same,Potency,[9],"inconclusive: 38.9 µM [falling, partial curve, poor fit]"
same,Potency,[4],active: 15.5 µM
CCc1cccc(C)c1N(C(=O)CCl)[C@@H](C)COC,Potency,[1],active: 34.4 µM
same,Potency,[10],"inconclusive: 127 µM [cytotoxic, single point]"
same,Potency,[11],"inconclusive: 54.9 µM [activator, single point]"
same,Potency,[9],"inconclusive: 54.9 µM [falling, single point]"
